Where a name gives a salt, the structure may show the parent alone. At least one compound was matched to its structure with a doubt left.
Target: T1, recombinant guanylate cyclase reporter cell line (Rattus norvegicus, UniProt P19686+P20595)
T1 construct: expressed in transfected cells
T1 sequence (P20595 1-619): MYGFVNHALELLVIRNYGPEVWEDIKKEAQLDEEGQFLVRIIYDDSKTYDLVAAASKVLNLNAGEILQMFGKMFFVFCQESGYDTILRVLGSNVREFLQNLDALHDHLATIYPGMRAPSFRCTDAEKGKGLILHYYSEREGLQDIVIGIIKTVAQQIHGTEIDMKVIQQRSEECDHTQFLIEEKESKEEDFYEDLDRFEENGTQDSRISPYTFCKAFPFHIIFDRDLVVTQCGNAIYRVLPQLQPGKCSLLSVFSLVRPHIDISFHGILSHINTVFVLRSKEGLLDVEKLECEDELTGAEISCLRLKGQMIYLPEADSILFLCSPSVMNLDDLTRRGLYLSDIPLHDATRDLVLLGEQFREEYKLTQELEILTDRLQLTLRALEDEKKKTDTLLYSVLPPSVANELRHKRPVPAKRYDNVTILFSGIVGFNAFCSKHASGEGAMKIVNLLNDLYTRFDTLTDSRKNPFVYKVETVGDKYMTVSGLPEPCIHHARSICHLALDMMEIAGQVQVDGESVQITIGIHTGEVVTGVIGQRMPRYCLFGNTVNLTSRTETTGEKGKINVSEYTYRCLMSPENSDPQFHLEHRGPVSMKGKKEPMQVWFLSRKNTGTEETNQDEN
T1 sequence (P19686 1-690): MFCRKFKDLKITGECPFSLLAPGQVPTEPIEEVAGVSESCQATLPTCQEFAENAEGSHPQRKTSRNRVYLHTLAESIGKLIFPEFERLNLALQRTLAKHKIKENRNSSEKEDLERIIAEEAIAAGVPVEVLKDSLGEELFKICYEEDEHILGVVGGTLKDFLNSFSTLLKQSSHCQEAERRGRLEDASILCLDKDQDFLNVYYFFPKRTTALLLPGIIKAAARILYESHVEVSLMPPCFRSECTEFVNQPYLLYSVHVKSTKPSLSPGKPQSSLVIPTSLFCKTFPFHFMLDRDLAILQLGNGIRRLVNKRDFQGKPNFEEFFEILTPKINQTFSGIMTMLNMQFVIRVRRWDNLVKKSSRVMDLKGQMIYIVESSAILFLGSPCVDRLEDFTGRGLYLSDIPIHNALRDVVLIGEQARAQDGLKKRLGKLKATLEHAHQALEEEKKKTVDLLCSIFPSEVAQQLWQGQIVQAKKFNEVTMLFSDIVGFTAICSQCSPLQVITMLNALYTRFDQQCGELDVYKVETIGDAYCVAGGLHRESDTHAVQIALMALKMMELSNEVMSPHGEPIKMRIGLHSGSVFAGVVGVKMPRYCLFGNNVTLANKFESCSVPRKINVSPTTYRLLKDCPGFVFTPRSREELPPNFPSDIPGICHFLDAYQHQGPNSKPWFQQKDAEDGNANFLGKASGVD
Experiment: Action on recombinant guanylate cyclase reporter cell line
Type: cell-based
Conditions: in some cases mean values obtained from individual determinations
Protocol: B-2. Action on Recombinant Guanylate Cyclase Reporter Cell Line
The cellular action of the compounds according to the invention is determined on a recombinant guanylate cyclase reporter cell line, as described in F. Wunder et al., Anal. Biochem. 339, 104-112 (2005).
Representative values (MEC=minimal effective concentration) for the compounds according to the invention are shown in the following table (in some cases as mean values obtained from individual determinations): […]

| Structure (SMILES) | MEC (minimal effective concentration) [µM] |
| --- | --- |
| Cc1nc2c(OCc3c(F)cccc3F)cccn2c1C(=O)N[C@@H](CO)c1ccccc1 (racemic) [Example 104, rac-8-[(2,6-difluorobenzyl)oxy]-N-[(1R)-2-hydroxy-1-phenylethyl]-2-methylimidazo[1,2-a]pyridine-3-carboxamide trifluoroacetate] | 0.1 |
| Cc1nc2c(OCc3c(F)cccc3F)cccn2c1C(=O)NC(CC(F)(F)F)C(C)(C)O (racemic) [Example 148, rac-8-[(2,6-Difluorobenzyl)oxy]-2-methyl-N-(1,1,1-trifluoro-4-hydroxy-4-methylpentan-3-yl)-imidazo[1,2-a]pyridine-3-carboxamide] | 0.03 |
| Cc1nc2c(OCc3c(F)cccc3F)cccn2c1C(=O)NC(C)C(O)C(F)(F)F (single isomer, unassigned) [Example 143, 8-[(2,6-Difluorobenzyl)oxy]-2-methyl-N-(4,4,4-trifluoro-3-hydroxybutan-2-yl)imidazo[1,2-a]-pyridine-3-carboxamide] | 0.03 |
| Cc1nc2c(OCc3c(F)cccc3F)cccn2c1C(=O)NC(C)C(O)C(F)(F)F (single isomer, unassigned) [Example 144, 8-[(2,6-Difluorobenzyl)oxy]-2-methyl-N-(4,4,4-trifluoro-3-hydroxybutan-2-yl)imidazo[1,2-a]-pyridine-3-carboxamide] | 0.3 |
| Cc1nc2c(OCc3c(F)cccc3F)cccn2c1C(=O)NC(C)C(O)C(F)(F)F (single isomer, unassigned) [Example 145, 8-[(2,6-Difluorobenzyl)oxy]-2-methyl-N-(4,4,4-trifluoro-3-hydroxybutan-2-yl)imidazo[1,2-a]-pyridine-3-carboxamide] | >10 |
| Cc1nc2c(OCc3c(F)cccc3F)cccn2c1C(=O)NC(C)C(O)C(F)(F)F (single isomer, unassigned) [Example 146, 8-[(2,6-Difluorobenzyl)oxy]-2-methyl-N-(4,4,4-trifluoro-3-hydroxybutan-2-yl)imidazo[1,2-a]-pyridine-3-carboxamide] | 1.0 |
| CCCC[C@H](CO)NC(=O)c1c(C)nc2c(OCc3ccccc3)cccn12 [Example 16, 8-(Benzyloxy)-N-[(2R)-1-hydroxyhexan-2-yl]-2-methylimidazo[1,2-a]pyridine-3-carboxamide] | 1.0 |
| Cc1nc2c(OCc3ccccc3Cl)cccn2c1C(=O)NC(CO)CO [Example 50, 8-[(2-chlorobenzyl)oxy]-N-(1,3-dihydroxypropan-2-yl)-2-methylimidazo[1,2-a]pyridine-3-carboxamide] | 6.5 |
| Cc1nc2c(OCc3ccccc3Br)cccn2c1C(=O)NC(CO)CO [Example 54, 8-[(2-bromobenzyl)oxy]-N-(1,3-dihydroxypropan-2-yl)-2-methylimidazo[1,2-a]pyridine-3-carboxamide] | 10 |
| CCCC[C@H](CO)NC(=O)c1c(C2CC2)nc2c(OCc3c(F)cccc3F)cccn12 [Example 134, 2-cyclopropyl-8-[(2,6-difluorobenzyl)oxy]-N-[(2R)-1-hydroxyhexan-2-yl]imidazo[1,2-a]-pyridine-3-carboxamide] | 0.3 |
